Data taken from publication PMC10511061.
No constants are given. Whether binding was seen depends on the method and setting. Binding seen in cells or lysates may run through a third protein. Some entries that bind do so weakly or less than the wild type. One block for each substance: values may come before it.

By UniProt entry, the sequences of proteins in these tests, tags left out. Where a name states a change or a piece, a line headed by the entry shows the natural chain unless it says otherwise. Residues count along the entry.
UniProt P23819: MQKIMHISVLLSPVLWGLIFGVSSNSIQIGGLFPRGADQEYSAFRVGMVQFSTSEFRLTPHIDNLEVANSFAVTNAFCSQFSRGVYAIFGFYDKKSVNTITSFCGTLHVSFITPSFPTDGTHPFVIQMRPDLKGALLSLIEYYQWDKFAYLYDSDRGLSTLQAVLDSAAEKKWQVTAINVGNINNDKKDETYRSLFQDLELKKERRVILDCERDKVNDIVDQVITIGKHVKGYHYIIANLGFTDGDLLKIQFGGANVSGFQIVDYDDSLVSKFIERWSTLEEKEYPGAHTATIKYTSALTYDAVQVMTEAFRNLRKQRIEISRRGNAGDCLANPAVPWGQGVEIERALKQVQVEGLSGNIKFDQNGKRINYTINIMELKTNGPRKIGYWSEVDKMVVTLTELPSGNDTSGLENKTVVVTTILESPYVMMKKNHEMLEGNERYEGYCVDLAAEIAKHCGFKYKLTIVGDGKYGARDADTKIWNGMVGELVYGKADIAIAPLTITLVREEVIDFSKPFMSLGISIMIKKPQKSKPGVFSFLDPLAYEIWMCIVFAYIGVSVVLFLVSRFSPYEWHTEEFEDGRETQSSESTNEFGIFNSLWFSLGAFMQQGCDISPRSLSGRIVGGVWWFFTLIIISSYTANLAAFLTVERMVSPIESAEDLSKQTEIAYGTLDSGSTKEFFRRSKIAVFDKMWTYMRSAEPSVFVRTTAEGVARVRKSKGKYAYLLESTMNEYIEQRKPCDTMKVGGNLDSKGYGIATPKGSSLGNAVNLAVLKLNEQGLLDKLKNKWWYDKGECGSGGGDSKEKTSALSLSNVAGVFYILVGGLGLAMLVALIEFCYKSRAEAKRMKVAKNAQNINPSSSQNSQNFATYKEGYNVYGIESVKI
UniProt Q9Z2W9: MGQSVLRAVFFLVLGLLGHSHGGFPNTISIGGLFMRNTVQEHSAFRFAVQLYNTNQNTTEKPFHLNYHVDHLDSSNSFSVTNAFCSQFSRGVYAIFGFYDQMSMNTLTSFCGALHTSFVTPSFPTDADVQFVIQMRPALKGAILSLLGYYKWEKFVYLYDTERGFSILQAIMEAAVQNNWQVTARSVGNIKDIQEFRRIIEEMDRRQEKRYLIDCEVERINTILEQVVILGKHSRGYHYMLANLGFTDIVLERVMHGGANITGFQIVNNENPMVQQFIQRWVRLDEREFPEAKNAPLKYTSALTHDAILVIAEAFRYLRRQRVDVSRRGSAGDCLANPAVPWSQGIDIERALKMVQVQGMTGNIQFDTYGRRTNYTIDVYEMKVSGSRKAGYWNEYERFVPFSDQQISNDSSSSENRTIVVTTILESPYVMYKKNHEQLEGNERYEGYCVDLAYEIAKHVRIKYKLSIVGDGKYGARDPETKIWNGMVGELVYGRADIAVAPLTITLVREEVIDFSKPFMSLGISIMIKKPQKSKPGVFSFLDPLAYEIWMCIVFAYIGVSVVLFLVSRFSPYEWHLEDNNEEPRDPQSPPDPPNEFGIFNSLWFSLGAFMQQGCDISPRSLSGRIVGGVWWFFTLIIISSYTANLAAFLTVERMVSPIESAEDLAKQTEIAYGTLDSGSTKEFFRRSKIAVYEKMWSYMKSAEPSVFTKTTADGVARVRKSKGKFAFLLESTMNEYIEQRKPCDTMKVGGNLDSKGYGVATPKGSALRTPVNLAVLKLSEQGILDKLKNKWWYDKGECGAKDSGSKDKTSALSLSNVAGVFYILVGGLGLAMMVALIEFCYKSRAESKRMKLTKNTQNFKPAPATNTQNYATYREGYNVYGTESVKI
UniProt Q66HL2: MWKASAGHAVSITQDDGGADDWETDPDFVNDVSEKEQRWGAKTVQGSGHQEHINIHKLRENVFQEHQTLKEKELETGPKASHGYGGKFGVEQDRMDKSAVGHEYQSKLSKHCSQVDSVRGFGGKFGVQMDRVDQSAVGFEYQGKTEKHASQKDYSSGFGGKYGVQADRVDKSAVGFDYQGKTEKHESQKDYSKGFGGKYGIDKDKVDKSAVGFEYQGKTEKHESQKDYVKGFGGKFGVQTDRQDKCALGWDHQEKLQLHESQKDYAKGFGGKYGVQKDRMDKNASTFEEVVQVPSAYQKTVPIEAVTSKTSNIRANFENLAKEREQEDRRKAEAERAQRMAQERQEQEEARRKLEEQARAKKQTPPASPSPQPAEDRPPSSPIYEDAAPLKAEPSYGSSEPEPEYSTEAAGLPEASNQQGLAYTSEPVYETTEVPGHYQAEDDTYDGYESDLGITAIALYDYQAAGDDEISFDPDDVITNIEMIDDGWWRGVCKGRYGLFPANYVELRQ
GST-cortactin (1-80 aa): residues 1-80 of Q66HL2
GST-cortactin (284-450 aa): residues 284-450 of Q66HL2
GST-cortactin (451-509 aa): residues 451-509 of Q66HL2
UniProt Q60598: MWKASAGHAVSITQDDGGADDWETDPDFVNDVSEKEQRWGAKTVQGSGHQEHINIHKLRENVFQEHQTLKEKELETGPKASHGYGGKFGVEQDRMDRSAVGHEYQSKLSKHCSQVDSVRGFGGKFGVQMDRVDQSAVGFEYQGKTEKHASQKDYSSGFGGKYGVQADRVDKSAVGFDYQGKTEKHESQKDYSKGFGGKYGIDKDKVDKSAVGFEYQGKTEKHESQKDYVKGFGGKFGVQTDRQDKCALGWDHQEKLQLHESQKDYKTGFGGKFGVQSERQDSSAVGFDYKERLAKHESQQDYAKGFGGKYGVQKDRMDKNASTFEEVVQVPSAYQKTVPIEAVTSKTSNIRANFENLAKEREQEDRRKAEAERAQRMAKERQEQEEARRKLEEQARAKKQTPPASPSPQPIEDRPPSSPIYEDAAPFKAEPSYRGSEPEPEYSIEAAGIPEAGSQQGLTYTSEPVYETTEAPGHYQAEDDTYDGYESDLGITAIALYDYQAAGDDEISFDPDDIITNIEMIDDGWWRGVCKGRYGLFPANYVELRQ

What was measured:
[1] = target: glutamate receptor 2/3 (GluR2/3) of MIN6 cells (mouse (endogenous in MIN6)) (UniProt P23819+Q9Z2W9); assay: co-IP; MIN6 cell lysate (1% Triton X-100, 1 mM EDTA, pH 7.9), 2.5 mg extract; immunoprecipitated with 5 μg polyclonal anti-intracellular GluR2/3 antibody or pre-immune IgG and protein G; Western blot with monoclonal anti-cortactin antibody
[2] = target: GST-tagged full-length cortactin (rat) (UniProt Q66HL2); assay: pull-down; 400 μg full-length GST-cortactin bound to glutathione beads, incubated with 2.5 mg MIN6 cell lysate (150 mM NaCl, 10 mM Tris-HCl, 0.5 mM EDTA, 10 mM NaF, 1% Triton X-100, pH 7.4) for 1 h; Western blot for GluR2/3; only the target purified
[3] = target: GST-cortactin (451-509 aa) (rat) (UniProt Q66HL2); assay: condition: 400 μg GST-fusion protein with 2.5 mg mouse brain extract; pull-down; 400 μg GST-fusion proteins of cortactin bound to glutathione-Sepharose beads, incubated with 2.5 mg mouse brain extract in lysis buffer (22.5 mM HEPES-NaOH, 150 mM NaCl, 1% Triton X-100, pH 7.4) at 4°C for 1 h; Western blot with anti-intracellular GluR2/3 antibody; only the target purified
[4] = target: GST-cortactin (1-80 aa) (rat) (UniProt Q66HL2); assay: as above
[5] = target: GST-cortactin (284-450 aa) (rat) (UniProt Q66HL2); assay: as above
[6] = target: GST-tagged full-length cortactin (rat) (UniProt Q66HL2); assay: pull-down; 400 μg GST-fusion proteins of cortactin bound to glutathione-Sepharose beads, incubated with 2.5 mg mouse brain extract in lysis buffer (22.5 mM HEPES-NaOH, 150 mM NaCl, 1% Triton X-100, pH 7.4) at 4°C for 1 h; Western blot with anti-intracellular GluR2/3 antibody; only the target purified

binding [1]: binds
Substance: cortactin of MIN6 cells (from UniProt Q60598 1-546)

binding [2]: binds
Substance: glutamate receptor 2/3 (GluR2/3) of MIN6 cells (from UniProt P23819 25-883; Q9Z2W9 23-888)

binding [3]: no binding
binding [4]: no binding
binding [5]: no binding
binding [6]: binds
Substance: glutamate receptor 2/3 (GluR2/3) of mouse brain extract (from UniProt P23819 25-883; Q9Z2W9 23-888)
